According to PubChem BioAssay AID651820 (National Center for Advancing Translational Sciences (NCATS), 2012):
The campaign covered roughly 340,000 compounds. About 12,000 (3.5%) were called active. Inconclusive means that the source gave no clear call. Such entries were picked first, then a sample of the others. Calls come from the whole dose curve; as a rule, active = well fitted inhibition curve with a large enough effect; inconclusive = small, poorly fitted or top-dose-only effect, or another doubt; inactive = no such curve, though single readings can be large or run the other way. Potencies of inconclusive entries are left out as doubtful fits.

test: qHTS Assay for Inhibitors of Hepatitis C Virus (HCV); settings: Huh7.5.1 HCVcc-Cre (HCVcc is cell-culture hepatitis C virus) infection, luciferase reporter, 44 h; activity change, negative = inhibition: at 41.8 µM (top of the series) unless noted
How it was run: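 A cell-based infection assay in which seeded cells (1,000 per well) receive test compound after 4 h, are inoculated with HCVcc-Cre at approximately 0.5 moi, and are incubated 44 h before luminescence detection.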
% is set by controls: 0 for no effect and ±100 for the full control effect; potency is the fitted concentration of half-maximal effect; tags give direction and shape of the fitted curve.

SMILES	Potency	activity change, negative = inhibition
C/C(=N\NC(=S)NCc1ccccc1)c1ccc2ccccc2c1	inconclusive [inhibitor, single point]	
Nc1ccccc1-c1ccccc1N		inactive: 22.8%
O=C(/C=C/c1ccc([N+](=O)[O-])cc1)c1ccccc(=O)c1O	active: 7.94 µM	
CCOC(=O)C1(Cc2ccccc2Cl)CCN(Cc2csc(C(C)=O)c2)CC1	active: 12.6 µM	
Cn1c(SCC(=O)N2CCCCC2)nc2cccnc21		inactive: -4.08%
COC(=O)c1ccc(NC(=O)CSC2=NCCN2)cc1	inconclusive [inhibitor, single point]	
Cc1cc(NC(=O)OC2CCCCC2)ccc1[N+](=O)[O-]	inconclusive [inhibitor, single point]	
Cc1cc(-c2nc(-c3ccc(C(C)(C)C)cc3)no2)no1	inconclusive [inhibitor, partial curve]	
CCCCn1c(=N)n(CC(=O)c2ccco2)c2ccccc21	inconclusive [inhibitor, single point]	
O=C(CCl)N1N=C(c2ccco2)CC1c1cccs1 (stereo unspecified)	inconclusive [inhibitor, single point]	
CCOc1ccccc1N1CCN(C(=O)Nc2ccc(F)c(Cl)c2)CC1	inconclusive [inhibitor, single point]	
COc1ccc(-c2cc(CCCC(=O)NCCc3cc(OC)ccc3OC)no2)cc1	active: 10 µM	
Cc1cccc(/N=C/c2c(O)ccc3oc4c(c23)CCCC4)n1	inconclusive [inhibitor, single point]	
CCN(c1ccccc1)S(=O)(=O)c1cc(C(=O)OCC(=O)c2c(N)n(C)c(=O)n(C)c2=O)ccc1C	inconclusive [inhibitor, partial curve, poor fit]	
CCCC(=O)N1CC(=O)Nc2ccc(Br)cc2C1c1ccc(F)cc1 (stereo unspecified)		inactive: 1.97%
OC(COCc1ccc2c(c1)OCO2)CN1CCC(Cc2ccccc2)CC1 (stereo unspecified)	inconclusive [inhibitor, partial curve]	
Cc1cccc(NS(=O)(=O)c2ccc(-c3cnc(C4CC4)o3)cc2)c1C	inconclusive [inhibitor, partial curve]	
O=C(Nc1cccc(S(=O)(=O)N2CCCCC2)c1)c1cccs1	inconclusive [inhibitor, single point]	
CC(C)c1ccc(C(CC(=O)c2ccc(Cl)cc2)C(=O)O)cc1 (stereo unspecified)		inactive: 18.9%
CC(C)OC(=S)N/C(=N\S(=O)(=O)c1ccccc1)c1ccccc1		inactive: 15%
C=C(C)[C@H]1CN[C@H](C(=O)O)[C@H]1CC(=O)O		inactive: 5.87%
Nc1c(N(CCC2=CCCCC2)C(=O)c2ccc([N+](=O)[O-])o2)c(=O)[nH]c(=O)n1Cc1ccccc1	inconclusive [inhibitor, partial curve]	
O=C(NC1CCCC1)c1ccc(CSCc2ccccc2F)o1		inactive: -23.2%
CCCCCCN1C=CC=C/C1=C/C=C(C#N)C#N	inconclusive [inhibitor, partial curve]	

SMILES	Potency	activity change, negative = inhibition
COc1ccc(-c2cccc(CCC(=O)N3CCN(c4cc(C)ccc4C)CC3)c2)cc1	inconclusive [inhibitor, partial curve]	
CCN1CCN(c2ccc(S(=O)(=O)N3CCCCC3)cc2NC(=O)COc2ccc(Cl)cc2)CC1	inconclusive [inhibitor, partial curve]	
CCOc1ccccc1NC(=O)c1nc(S(=O)(=O)Cc2cccc(C)c2)ncc1Cl	active: 2.82 µM	
Cc1nn(-c2ccccc2)c2sc(C(=O)NNC(=O)COc3cccc4ccccc34)cc12	inconclusive [inhibitor, single point]	
Cc1ccc(-c2nsc(SCC(=O)NCC3CCCO3)n2)cc1 (stereo unspecified)	active: 10 µM	
CC1CCC(N2CCNCC2)CC1 (stereo unspecified)		inactive: 23.3%
Cc1cccc(N2CC(C(=O)Nc3nnc(SCCC4OCCO4)s3)CC2=O)c1 (stereo unspecified)		inactive: 13.5%
Cc1cc(C)c2ccc3c(C)c(C)nc3c2[nH]1	inconclusive [inhibitor, full curve]	
COc1ccc(C2=NS(=O)(=O)N(C)C(C(=O)Nc3ccc(C(C)=O)cc3)=C2)cc1OC	active: 11.2 µM	
c1cc2n(c1)-c1c(ccc3c1OCO3)CNC2c1ccc2c(c1)OCO2 (stereo unspecified)	inconclusive [inhibitor, partial curve, poor fit]	
C=CCN(c1ccc(F)cc1)S(=O)(=O)c1cc(C(=O)NC2CCC(O)CC2)ccc1Cl (stereo unspecified)	inconclusive [inhibitor, single point]	
Nc1nc2c(ncn2COCCO)c(=O)[nH]1		inactive: 2.45% [at 8.37 µM]
Cc1oc(-c2ccc(Cl)cc2)nc1CSCC(=O)NC1CCN(Cc2ccccc2)CC1	active: 3.98 µM	
CC1CN(c2ccc([N+](=O)[O-])c(NCCOc3ccccc3)c2)CC(C)N1 (stereo unspecified)	inconclusive [inhibitor, single point]	
CC1Sc2n(c3ccccc3[n+]2C)N=C1c1ccccc1 (stereo unspecified)		inactive: -17.4%
COc1cc(NC(=O)Cn2nnc(-c3ccccc3N)n2)cc(OC)c1	inconclusive [inhibitor, partial curve]	
O=c1c2[nH]c3ccccc3c2ncn1CCC1=CCCCC1		inactive: 10.6%
CCN(CC)CCCNCC(=O)Nc1ccc2c(c1)CCC2	active: 10 µM	
CCOC(=O)c1c(C)oc2c1c(C(c1cccnc1)N1CCOCC1)c(O)c1ccccc12 (stereo unspecified)	inconclusive [inhibitor, single point]	
CCOc1ccccc1NC(=O)c1cc(-c2ccncc2)nc2c(Cl)cccc12	inconclusive [inhibitor, single point]	
O=C(/C=C\c1ccco1)NC(=S)Nc1ccccc1O		inactive: -3.78%
COc1ccccc1NC(=O)C(C)OC(=O)c1cccc(-n2cnnn2)c1 (stereo unspecified)	inconclusive [inhibitor, single point]	
CCOc1ccc(NC(=S)N2CCN(C/C=C/c3ccccc3)CC2)cc1	inconclusive [inhibitor, partial curve]	
Cc1sc(NC(=S)NC(=O)C2CCCCC2)c(C(N)=O)c1C	inconclusive [inhibitor, partial curve]	

SMILES	Potency	activity change, negative = inhibition
O[C@@H]1CN(C2CCCCC2)CC[C@H]1N1CCN(CCc2ccccc2)CC1	inconclusive [inhibitor, full curve, poor fit]	
CN(C)S(=O)(=O)c1ccc(Cl)c(NC(=O)CN2CCc3ccccc3C2)c1	inconclusive [inhibitor, partial curve]	
CN(CCO)c1ccc([N+](=O)[O-])cc1C(=O)O		inactive: 4.67%
O=C(NCc1ccccc1)c1ccc(C(=O)N(C2CCCCC2)C2CCCCC2)cc1	inconclusive [inhibitor, single point]	
O=C(Nc1ccc2c(c1)CCCN2C(=O)c1cccs1)c1cccc(F)c1	inconclusive [inhibitor, single point]	
CC(=O)c1ccccc1OCc1ccc(S(=O)(=O)Cc2ccccc2)cc1	active: 10 µM	
CC(C)(C)N=C1NN=C(c2cc3ccccc3o2)CS1	inconclusive [inhibitor, single point]	
CCOc1ccc(N2C(=O)CC(N(C)Cc3ccccc3)C2=O)cc1 (stereo unspecified)		inactive: 19.4%
S=c1nc(NCc2cccc(Cl)c2)c2ccccc2[nH]1		inconclusive: -42.5% [inhibitor]
O=C(c1cnccn1)N1CCCC(N2CCN(c3cccc(Cl)c3)CC2)C1 (stereo unspecified)		inactive: 11.2%
COc1ccc(-n2c(Cc3cccn3C)nnc2SCC(=O)NCc2ccco2)cc1	inactive	
COc1ccc(NC(=S)N(CCCN2CCOCC2)Cc2cn(C)c3ccccc23)cc1OC	inconclusive [inhibitor, full curve, poor fit]	
CC(C)Oc1cc(C(=O)NC2CCCCC2)c2ccccc2n1		inactive: -26.6%
CCOC(=O)[C@@H]1[C@H]2COc3cc(OC)ccc3[C@H]2N2C(=O)N(c3ccc(Br)cc3)C(=O)[C@]12C	inconclusive [inhibitor, single point]	
CCCS(=O)(=O)c1nc(S(=O)(=O)c2ccc(C)cc2)c(N2CC(C)OC(C)C2)s1 (stereo unspecified)	inconclusive [inhibitor, single point]	
Cc1nn(CCO)c2nc(-c3cccs3)cc(C(F)(F)F)c12	inconclusive [inhibitor, single point]	
CCc1ccc(NC(=O)CNC(=O)c2cn(-c3ccccc3OC)c(=O)c3ccccc23)cc1	inconclusive [inhibitor, partial curve]	
N#CC1=C(N)NC(SCC(=O)c2ccc(Br)cc2)=C(C#N)C12CCCCC2	inconclusive [inhibitor, partial curve]	
CCOC(=O)c1cccnc1SCC(=O)N(CC)c1cccc(C)c1	inconclusive [inhibitor, single point]	
O=C(/C=C/c1ccc(S(=O)(=O)N2CCOCC2)cc1)NCc1ccc(Cl)cc1	inconclusive [inhibitor, single point]	
COc1ccc(OC)c(NC(=O)C(=O)c2cn(CC(=O)N3CCCC3)c3ccccc23)c1	inconclusive [inhibitor, partial curve, poor fit]	
COc1ccc(NC(=O)Cn2ccc(C(F)(F)F)n2)cc1S(=O)(=O)N1CCOCC1	inconclusive [inhibitor, single point]	
CN1C(C)(C)CC(NC(=O)CCC(=O)NC2CC(C)(C)N(C)C(C)(C)C2)CC1(C)C	inconclusive [inhibitor, partial curve]	
